{
  "sequences": {"note": "By UniProt entry, the sequences of proteins in these tests, tags left out. Where a name states a change or a piece, a line headed by the entry shows the natural chain unless it says otherwise. Residues count along the entry.", "UniProt Q96B97": "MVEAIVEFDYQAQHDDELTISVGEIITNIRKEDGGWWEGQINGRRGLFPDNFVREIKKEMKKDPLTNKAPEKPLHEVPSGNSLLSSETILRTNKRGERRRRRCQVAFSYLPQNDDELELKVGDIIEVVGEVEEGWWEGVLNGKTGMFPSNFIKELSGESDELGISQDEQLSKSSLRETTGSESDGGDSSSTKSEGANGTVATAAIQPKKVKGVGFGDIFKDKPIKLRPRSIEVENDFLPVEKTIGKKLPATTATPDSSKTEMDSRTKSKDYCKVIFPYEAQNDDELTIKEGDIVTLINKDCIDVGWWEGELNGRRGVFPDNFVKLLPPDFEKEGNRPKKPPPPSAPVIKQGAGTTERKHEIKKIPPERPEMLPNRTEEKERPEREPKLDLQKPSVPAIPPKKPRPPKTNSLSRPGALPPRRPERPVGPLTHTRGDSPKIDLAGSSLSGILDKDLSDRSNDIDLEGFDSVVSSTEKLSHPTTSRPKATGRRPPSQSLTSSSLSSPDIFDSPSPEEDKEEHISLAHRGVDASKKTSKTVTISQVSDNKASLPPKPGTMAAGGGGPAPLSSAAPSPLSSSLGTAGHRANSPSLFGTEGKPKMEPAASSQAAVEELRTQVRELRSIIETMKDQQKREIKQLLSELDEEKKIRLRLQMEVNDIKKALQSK", "CIN85 4-450 two-hybrid prey": "residues 4-450 of Q96B97", "CIN85 4-264 two-hybrid prey": "residues 4-264 of Q96B97", "UniProt P19338, residues 375-692": "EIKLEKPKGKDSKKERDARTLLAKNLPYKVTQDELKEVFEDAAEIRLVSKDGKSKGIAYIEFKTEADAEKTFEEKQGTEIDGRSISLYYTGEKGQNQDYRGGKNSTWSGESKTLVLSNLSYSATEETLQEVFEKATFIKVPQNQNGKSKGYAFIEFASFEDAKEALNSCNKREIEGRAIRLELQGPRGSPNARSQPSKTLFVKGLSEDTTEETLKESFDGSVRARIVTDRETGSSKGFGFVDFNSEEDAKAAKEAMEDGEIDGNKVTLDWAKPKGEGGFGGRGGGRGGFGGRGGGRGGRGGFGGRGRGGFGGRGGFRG", "PABPC1 1-246 two-hybrid prey (P11940, residues 1-246)": "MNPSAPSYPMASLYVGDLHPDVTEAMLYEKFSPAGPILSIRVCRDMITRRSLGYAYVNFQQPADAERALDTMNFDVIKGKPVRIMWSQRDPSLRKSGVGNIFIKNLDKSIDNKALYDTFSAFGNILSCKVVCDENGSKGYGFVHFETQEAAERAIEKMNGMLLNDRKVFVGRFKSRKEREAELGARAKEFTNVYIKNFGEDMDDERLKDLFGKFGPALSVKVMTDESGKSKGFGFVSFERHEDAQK", "PABPC1 79-400 two-hybrid prey (P11940, residues 79-400)": "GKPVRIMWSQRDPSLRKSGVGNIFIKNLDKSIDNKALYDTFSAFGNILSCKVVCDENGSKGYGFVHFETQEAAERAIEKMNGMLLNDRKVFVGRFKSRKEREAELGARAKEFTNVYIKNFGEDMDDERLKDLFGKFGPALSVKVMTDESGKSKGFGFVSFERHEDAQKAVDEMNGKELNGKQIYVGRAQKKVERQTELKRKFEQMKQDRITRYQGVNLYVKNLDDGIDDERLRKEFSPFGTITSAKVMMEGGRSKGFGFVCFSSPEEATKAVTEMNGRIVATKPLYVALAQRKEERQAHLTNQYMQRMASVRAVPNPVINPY", "PABPC1 95-408 two-hybrid prey (P11940, residues 95-408)": "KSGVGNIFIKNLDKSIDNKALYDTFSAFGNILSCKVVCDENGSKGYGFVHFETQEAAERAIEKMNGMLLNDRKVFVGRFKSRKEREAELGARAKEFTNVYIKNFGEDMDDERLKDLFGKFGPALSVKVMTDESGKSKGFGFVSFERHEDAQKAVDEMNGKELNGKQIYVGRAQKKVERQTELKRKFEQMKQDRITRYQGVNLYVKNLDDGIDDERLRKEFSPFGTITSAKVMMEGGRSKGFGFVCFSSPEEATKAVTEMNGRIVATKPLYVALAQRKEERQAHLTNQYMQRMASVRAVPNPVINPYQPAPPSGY", "PABPC1 99-422 two-hybrid prey (P11940, residues 99-422)": "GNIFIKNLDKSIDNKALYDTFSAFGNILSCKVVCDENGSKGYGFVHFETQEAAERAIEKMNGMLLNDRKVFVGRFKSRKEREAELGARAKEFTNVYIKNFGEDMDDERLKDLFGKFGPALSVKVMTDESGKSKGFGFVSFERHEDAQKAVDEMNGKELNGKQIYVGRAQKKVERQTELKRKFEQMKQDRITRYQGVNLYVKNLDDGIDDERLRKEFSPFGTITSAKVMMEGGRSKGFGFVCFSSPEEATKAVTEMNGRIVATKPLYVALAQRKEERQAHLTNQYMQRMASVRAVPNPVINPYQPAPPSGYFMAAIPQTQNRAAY", "PABPC1 100-309 two-hybrid prey (P11940, residues 100-309)": "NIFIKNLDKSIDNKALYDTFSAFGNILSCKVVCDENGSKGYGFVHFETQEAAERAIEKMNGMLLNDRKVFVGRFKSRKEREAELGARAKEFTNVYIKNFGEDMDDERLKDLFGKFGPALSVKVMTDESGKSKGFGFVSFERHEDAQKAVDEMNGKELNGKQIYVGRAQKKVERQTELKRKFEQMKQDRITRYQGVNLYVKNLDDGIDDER", "PABPC1 178-466 two-hybrid prey (P11940, residues 178-466)": "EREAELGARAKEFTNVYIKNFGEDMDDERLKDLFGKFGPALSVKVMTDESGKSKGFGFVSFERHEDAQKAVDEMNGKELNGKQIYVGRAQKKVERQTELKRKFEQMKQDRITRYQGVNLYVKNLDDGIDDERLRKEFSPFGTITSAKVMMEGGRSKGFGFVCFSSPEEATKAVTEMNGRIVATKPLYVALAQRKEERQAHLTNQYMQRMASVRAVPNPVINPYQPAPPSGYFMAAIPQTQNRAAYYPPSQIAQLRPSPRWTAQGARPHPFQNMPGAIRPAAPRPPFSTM", "PABPC1 187-482 two-hybrid prey (P11940, residues 187-482)": "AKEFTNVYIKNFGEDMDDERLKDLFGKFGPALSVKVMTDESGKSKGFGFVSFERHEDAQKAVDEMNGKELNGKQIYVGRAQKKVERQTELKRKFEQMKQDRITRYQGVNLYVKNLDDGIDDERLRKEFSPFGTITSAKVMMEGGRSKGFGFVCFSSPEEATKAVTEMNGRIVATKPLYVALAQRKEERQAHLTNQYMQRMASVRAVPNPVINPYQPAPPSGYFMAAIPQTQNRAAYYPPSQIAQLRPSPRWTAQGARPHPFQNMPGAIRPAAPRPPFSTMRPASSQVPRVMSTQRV", "PABPC1 236-399 two-hybrid prey (P11940, residues 236-399)": "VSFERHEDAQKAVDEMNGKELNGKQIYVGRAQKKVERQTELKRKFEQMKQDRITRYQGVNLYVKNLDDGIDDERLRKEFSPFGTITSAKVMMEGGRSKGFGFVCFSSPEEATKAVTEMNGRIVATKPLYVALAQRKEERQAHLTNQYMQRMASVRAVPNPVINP"},
  "source": "paper PMC2833206",
  "molecules": {"B1": {"name": "HA-tagged human MARCKS (HA-MARCKS) (protein, UniProt P29966 1-332)", "chain": "MGAQFSKTAAKGEAAAERPGEAAVASSPSKANGQENGHVKVNGDASPAAAESGAKEELQANGSAPAADKEEPAAAGSGAASPSAAEKGEPAAAAAPEAGASPVEKEAPAEGEAAEPGSPTAAEGEAASAASSTSSPKAEDGATPSPSNETPKKKKKRFSFKKSFKLSGFSFKKNKKEAGEGGEAEAPAAEGGKDEAAGGAAAAAAEAGAASGEQAAAPGEEAAAGEEGAAGGDPQEAKPQEAAVAPEKPPASDETKAAEEPSKVEEKKAEEAGASAAACEAPSAAGPGAPPEQEAAPAEEPAAAAASSACAAPSQEAQPECSPEAPPAEAAE"}, "B2": {"name": "human ZFP36L1 (hZFP36L1), full length, epitope-tagged (protein, UniProt Q07352 1-338)", "chain": "MTTTLVSATIFDLSEVLCKGNKMLNYSAPSAGGCLLDRKAVGTPAGGGFPRRHSVTLPSSKFHQNQLLSSLKGEPAPALSSRDSRFRDRSFSEGGERLLPTQKQPGGGQVNSSRYKTELCRPFEENGACKYGDKCQFAHGIHELRSLTRHPKYKTELCRTFHTIGFCPYGPRCHFIHNAEERRALAGARDLSADRPRLQHSFSFAGFPSAAATAAATGLLDSPTSITPPPILSADDLLGSPTLPDGTNNPFAFSSQELASLFAPSMGLPGGGSPTTFLFRPMSESPHMFDSPPSPQDSLSDQEGYLSSSSSSHSGSDSPTLDNSRRLPIFSRLSISDD"}, "B3": {"name": "human ZFP36L2 (hZFP36L2), full length, epitope-tagged (protein, UniProt P47974 1-494)", "chain": "MSTTLLSAFYDVDFLCKTEKSLANLNLNNMLDKKAVGTPVAAAPSSGFAPGFLRRHSASNLHALAHPAPSPGSCSPKFPGAANGSSCGSAAAGGPTSYGTLKEPSGGGGTALLNKENKFRDRSFSENGDRSQHLLHLQQQQKGGGGSQINSTRYKTELCRPFEESGTCKYGEKCQFAHGFHELRSLTRHPKYKTELCRTFHTIGFCPYGPRCHFIHNADERRPAPSGGASGDLRAFGTRDALHLGFPREPRPKLHHSLSFSGFPSGHHQPPGGLESPLLLDSPTSRTPPPPSCSSASSCSSSASSCSSASAASTPSGAPTCCASAAAAAAAALLYGTGGAEDLLAPGAPCAACSSASCANNAFAFGPELSSLITPLAIQTHNFAAVAAAAYYRSQQQQQQQGLAPPAQPPAPPSATLPAGAAAPPSPPFSFQLPRRLSDSPVFDAPPSPPDSLSDRDSYLSGSLSSGSLSGSESPSLDPGRRLPIFSRLSISDD"}, "B4": {"name": "Flag-tagged mouse ZFP36L3 (pFlag-muL3), full length (protein, UniProt Q5ISE2 1-725)", "chain": "MANNNLNRPLNTNVADSSNSSSTPGTAPPPSSSDPQVLGHQAPSSSASSLTEDCSSSFARDLNSYNNGQSGATGAVSWEAPHEPSEANAVSQIHPRNGEHSLQQKPKPQKVSGSSSLATSERYKTELCRPFEESGICKYGHKCQFAHGYRELRTLSRHPKYKTEPCRTFHSVGFCPYGTRCHFIHNQPEQQPVLSESTLEEPSSFNGSNVLHLGVNGEQQPGLQSDSPSGFLSVNSQALQAPLQLNQQALSSGGVMPSSHPAAANLRMMCCRTSSSTTAHDADKDPDKDADKDPSNNSANDALAFPQEPGDFSPVAFQNPNTATTTPTAFYNNQQQMGLAASAQFQMPLARPLPSATIFGQASVGPALTPGAAMAPGAALAPAAALTPAAALAPGAAMALGAAMATGAAMATGAALTPGAALALGAAMAAGAALAPGAAMAPGAAMATGAALAFGAAMATGTTLTPGAAMALGAAMATGAALAPGAAVAPRAALAPRAAFAPGAAALAPRAALPPGAALTPGAALAPGAALAPRAALPPGATLRPGAALIPRAALAPGAALAPGAALTPGAALAPGATLAPRAALAPGAALAPRITITSRAAITPGVAIAPGVATASTGILAPGAATATVGNTSSTTITAATAAEGAAPHFTFQLPDVESESESESLEFDVVTSTLDSLLVSDDEDEDDFLRRSSSSSSLNESEFDNTNSSRRLPIFSRFSDSEK"}},
  "key": {"[1]": {"molecular_target": "T1, hTTP 223-326 two-hybrid bait (human) (UniProt P26651)", "T1 sequence": "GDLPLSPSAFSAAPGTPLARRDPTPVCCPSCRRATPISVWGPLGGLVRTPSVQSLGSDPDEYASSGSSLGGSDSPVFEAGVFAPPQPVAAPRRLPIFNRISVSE", "test": "two-hybrid; automated ProNet screen (Myriad Genetics); hTTP fragments fused to the Gal4 DNA binding domain as baits, mated with Gal4 activation domain libraries (human spleen, brain, mixed breast/prostate cancer cell lines); selection on -Trp -Leu -His -Ade; confirmed by liquid beta-galactosidase assays; some screens with ARE RNA expressed"}, "[2]": {"molecular_target": "T2, hTTP 150-326 two-hybrid bait (human) (UniProt P26651)", "T2 sequence": "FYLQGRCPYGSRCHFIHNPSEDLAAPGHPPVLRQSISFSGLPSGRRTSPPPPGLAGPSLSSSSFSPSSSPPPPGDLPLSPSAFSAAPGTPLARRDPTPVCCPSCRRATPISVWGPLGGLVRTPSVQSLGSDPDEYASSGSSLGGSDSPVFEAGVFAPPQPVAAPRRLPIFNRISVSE", "test": "two-hybrid; automated ProNet screen (Myriad Genetics); hTTP fragments fused to the Gal4 DNA binding domain as baits, mated with Gal4 activation domain libraries (human spleen, brain, mixed breast/prostate cancer cell lines); selection on -Trp -Leu -His -Ade; confirmed by liquid beta-galactosidase assays; some screens with ARE RNA expressed"}, "[3]": {"molecular_target": "Flag-tagged human CIN85 (Flag-CIN85), full length (human) (UniProt Q96B97)", "test": "co-IP; HEK 293 cells transfected with HA- and Flag-tagged constructs (or endogenous partner); 1 mg protein of RIPA extract, treated with RNase; anti-FLAG or anti-HA monoclonal antibody overnight at 4 °C, protein A Sepharose; western blot"}, "[4]": {"molecular_target": "Flag-tagged human tristetraprolin (Flag-hTTP) (human) (UniProt P26651)", "test": "co-IP; HEK 293 cells transfected with HA- and Flag-tagged constructs (or endogenous partner); 1 mg protein of RIPA extract, treated with RNase; anti-FLAG or anti-HA monoclonal antibody overnight at 4 °C, protein A Sepharose; western blot"}, "[5]": {"molecular_target": "hTTP 90-180 two-hybrid bait (human) (UniProt P26651)", "test": "two-hybrid; automated ProNet screen (Myriad Genetics); hTTP fragments fused to the Gal4 DNA binding domain as baits, mated with Gal4 activation domain libraries (human spleen, brain, mixed breast/prostate cancer cell lines); selection on -Trp -Leu -His -Ade; confirmed by liquid beta-galactosidase assays; some screens with ARE RNA expressed"}, "[6]": {"molecular_target": "Flag-tagged human tristetraprolin (Flag-hTTP) (human) (UniProt P26651)", "test": "co-IP; HEK 293 cells transfected with HA- and Flag-tagged constructs (or endogenous partner); 1 mg protein of RIPA extract, treated with RNase; anti-FLAG or anti-HA monoclonal antibody overnight at 4 °C, protein A Sepharose; western blot", "remark": "listed apart in the source"}, "[7]": {"molecular_target": "Flag-tagged human CIN85 (Flag-CIN85), full length (human) (UniProt Q96B97)", "test": "co-IP; HEK 293 cells transfected with HA- and Flag-tagged constructs (or endogenous partner); 1 mg protein of RIPA extract, treated with RNase; anti-FLAG or anti-HA monoclonal antibody overnight at 4 °C, protein A Sepharose; western blot", "remark": "listed apart in the source"}, "[8]": {"molecular_target": "HA-tagged human CIN85 (HA-CIN85), full length (human) (UniProt Q96B97)", "test": "co-IP; HEK 293 cells transfected with HA- and Flag-tagged constructs (or endogenous partner); 1 mg protein of RIPA extract, treated with RNase; anti-FLAG or anti-HA monoclonal antibody overnight at 4 °C, protein A Sepharose; western blot"}},
  "note": "Like-named read-outs stand apart in the source and are kept apart here. Results are given in words; binding and its absence hold for the method and conditions named. For some assays here: In cells and extracts the contact can be indirect. Some results given as binding are weak or reduced against the parent protein; the word gives no strength. For some assays here: Where a sequence is shown, tags or fusion partners need not be part of it.",
  "data": [
    {"molecule": "CIN85 4-264 two-hybrid prey (from UniProt Q96B97-1 4-264) (domain or fragment)", "values": [
      {"measurement": "binding", "setting": "[1]", "value": "binds"},
      {"measurement": "binding", "setting": "[2]", "value": "binds"}
    ]},
    {"molecule": "CIN85 4-450 two-hybrid prey (from UniProt Q96B97-1 4-450) (domain or fragment)", "values": [
      {"measurement": "binding", "setting": "[1]", "value": "binds"},
      {"measurement": "binding", "setting": "[2]", "value": "binds"}
    ]},
    {"molecule": "HA-hTTP 1-290 (from UniProt P26651 1-290) (domain or fragment)", "values": [
      {"measurement": "binding", "setting": "[3]", "value": "no binding"}
    ]},
    {"molecule": "HA-hTTP 1-313 (from UniProt P26651 1-313) (domain or fragment)", "values": [
      {"measurement": "binding", "setting": "[3]", "value": "no binding"}
    ]},
    {"molecule": "HA-hTTP 1-319 (from UniProt P26651 1-319) (domain or fragment)", "values": [
      {"measurement": "binding", "setting": "[3]", "value": "binds"}
    ]},
    {"molecule": "HA-hTTP 1-322 (from UniProt P26651 1-322) (domain or fragment)", "values": [
      {"measurement": "binding", "setting": "[3]", "value": "binds"}
    ]},
    {"molecule": "HA-tagged mitogen-activated protein kinase kinase kinase 4 (HA-MEKK4) (from UniProt Q9Y6R4-1 1-1608) (enzyme)", "values": [
      {"measurement": "binding", "setting": "[3]", "value": "binds"},
      {"measurement": "binding", "setting": "[4]", "value": "binds"}
    ]},
    {"molecule": "Nucleolin 375-692 two-hybrid prey (from UniProt P19338 375-692) (domain or fragment)", "values": [
      {"measurement": "binding", "setting": "[5]", "value": "binds"}
    ]},
    {"molecule": "PABPC1 1-246 two-hybrid prey (from UniProt P11940-1 1-246) (domain or fragment)", "values": [
      {"measurement": "binding", "setting": "[5]", "value": "binds"}
    ]},
    {"molecule": "PABPC1 79-400 two-hybrid prey (from UniProt P11940-1 79-400) (domain or fragment)", "values": [
      {"measurement": "binding", "setting": "[5]", "value": "binds"}
    ]},
    {"molecule": "PABPC1 95-408 two-hybrid prey (from UniProt P11940-1 95-408) (domain or fragment)", "values": [
      {"measurement": "binding", "setting": "[5]", "value": "binds"}
    ]},
    {"molecule": "PABPC1 99-422 two-hybrid prey (from UniProt P11940-1 99-422) (domain or fragment)", "values": [
      {"measurement": "binding", "setting": "[5]", "value": "binds"}
    ]},
    {"molecule": "PABPC1 100-309 two-hybrid prey (from UniProt P11940-1 100-309) (domain or fragment)", "values": [
      {"measurement": "binding", "setting": "[5]", "value": "binds"}
    ]},
    {"molecule": "PABPC1 178-466 two-hybrid prey (from UniProt P11940-1 178-466) (domain or fragment)", "values": [
      {"measurement": "binding", "setting": "[5]", "value": "binds"}
    ]},
    {"molecule": "PABPC1 187-482 two-hybrid prey (from UniProt P11940-1 187-482) (domain or fragment)", "values": [
      {"measurement": "binding", "setting": "[5]", "value": "binds"}
    ]},
    {"molecule": "PABPC1 236-399 two-hybrid prey (from UniProt P11940-1 236-399) (domain or fragment)", "values": [
      {"measurement": "binding", "setting": "[5]", "value": "binds"}
    ]},
    {"molecule": "B1", "values": [
      {"measurement": "binding", "setting": "[6]", "value": "no binding"}
    ]},
    {"molecule": "B2", "values": [
      {"measurement": "binding", "setting": "[7]", "value": "no binding"}
    ]},
    {"molecule": "B3", "values": [
      {"measurement": "binding", "setting": "[7]", "value": "no binding"}
    ]},
    {"molecule": "B4", "values": [
      {"measurement": "binding", "setting": "[8]", "value": "no binding"}
    ]}
  ]
}
